In article PMC12040169 (PLOS Biology, 2025):
The other results are listed elsewhere or left out.

The molecules below were run on T1, C. trachomatis L2/434/Bu expressing GFP (CTL2-GFP). Settings: total inclusion area; 28.5 h, 10 µM; inhibitor.
T1 construct: L2/434/Bu GFP intracellular growth in HeLa cells
Design: species or system HeLa; C. trachomatis total inclusion area by high-content imaging, normalised to DMSO
Summary of the method: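 Post-fluorescence-read fixation, DNA staining with Hoechst and high-content imaging; GFP inclusion area and number per well, and nuclei counts, used as proxies for bacterial growth and host viability.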

| SMILES | % of control remaining |
| --- | --- |
| O=C(c1cncnc1)N1CCN(C(=O)c2ccco2)CC1 [CBK144477] | 110.58 |
| CCCNS(=O)(=O)c1cc2c3c(c1)c(C)cc(=O)n3CCC2 [CBK307547] | 35.4799 |
| O=C(CN1CCOCC1)Nc1sc2c(c1C(=O)Nc1ccc(Cl)cc1)CCC2 [CBK265056] | 104.315 |
| O=C(O)C1CCCN1C(=O)c1ccc(C#CC2(O)CCCCC2)cc1 (stereo not shown) [CBK287022] | 102.576 |
| CCCCOc1ccc(S(=O)(=O)N2CCN(c3cccc(C)c3C)CC2)cc1 [CBK099293] | 96.7357 |
| CCN(CC)CC(O)Cn1c(-c2ccccc2Cl)nc2ccccc21 (stereo not shown) [CBK262495] | 114.984 |
| CCOC(=O)c1cnc(SC)nc1N1CCOCC1 [CBK018971] | 30.986 |
| CCCc1nc(CN2CCNC(=O)C2c2ccccc2C(F)(F)F)no1 (stereo not shown) [CBK304123] | 89.1875 |
| O=C1COCC(=O)N1c1ccccn1 [CBK006233] | 46.1032 |
| O=C(Nc1ccc2c(c1)OCO2)Nc1c(Br)cnc2ncccc12 [CBK105596] | 90.4192 |
| Brc1n[nH]c2nc(NCc3ccco3)ncc12 [CBK022327] | 90.9198 |
| CC(=O)C(Sc1nc(N2CCOCC2)nc(N2CCOCC2)n1)C(=O)Nc1ccccc1 (stereo not shown) [CBK266643] | 111.776 |
| CCCC(=O)c1ccc(S(=O)(=O)N2CCCN(Cc3ccc(F)c(C#N)c3)CC2)cc1 [CBK062910] | 84.0319 |
| O=C(NCCN1CCC(O)(c2cccc(F)c2)CC1)C1CC=CCC1 (stereo not shown) [CBK282451] | 99.0566 |
| CC(C)(C)NC(=O)COc1ccc(CNc2nc[nH]n2)cc1 [CBK288179] | 105.684 |
| C[C@H](Nc1nc(-c2cccc(/C=C/C(=O)O)c2)cnc1N)c1ccccc1 [CBK063754] | 106.208 |
| CC(=O)c1ccc(OCc2nc(N)nc(Nc3ccccc3)n2)cc1 [CBK297155] | 88.9561 |
| CCOC(=O)CC(=O)CSc1nc(N)c2c3c(sc2n1)CCCC3 [CBK264942] | 93.1862 |
| COc1cccc(NC(=O)CCCC(=O)O)c1 [CBK261324] | 106.399 |
| CNC(=O)CCc1ccccc1NC(=O)NCc1cnc(SC)n1C [CBK307507] | 92.2627 |
| COc1cc(-c2nc3ccccn3c2/N=C/c2ccc(-c3ccc([N+](=O)[O-])cc3)o2)ccc1O [CBK262288] | 86.2031 |
| COc1cc(C)c(CN2CCN(C(=O)COc3cc4ccccc4cc3C(=O)O)CC2)cc1OC [CBK296968] | 72.477 |
| COc1ccc2[nH]cc(CCNC(=O)c3cc(C)[nH]n3)c2c1 [CBK116206] | 95.6642 |
| CC(=O)c1cc2c(N)c(C(N)=O)sc2nc1C [CBK100769] | 69.1793 |
| CS(=O)(=O)c1ccc(-c2cccc(COC3CCN(C(=O)Cc4ccc(C#N)cc4)CC3)c2)cc1 [CBK149513] | 76.6323 |
| Cc1nn(C)c2ncc(C(=O)N(C)Cc3ccc(C(C)(C)C)cc3)cc12 [CBK305657] | 45.8955 |

| SMILES | % of control remaining |
| --- | --- |
| CCCn1c(NC(=O)C2CCCN2S(=O)(=O)CC)nc2ccccc21 (stereo not shown) [CBK295624] | 105.495 |
| CC(=O)Nc1cccc(-n2ncc(-c3cccnc3)n2)c1 [CBK112811] | 107.95 |
| Cc1cccc(C2(Cn3cncc3-c3cnn(C)c3)CCOCC2)c1 [CBK281765] | 104.076 |
| CCOC(=O)N1CCC(NC(=O)c2ccc3nc4ccccc4c(=O)n3c2)CC1 [CBK294447] | 116.484 |
| CCc1cccc2c1Sc1ccccc1CC2N1CCN(C)CC1 (stereo not shown) [CBK026248G] | 22.0254 |
| Cc1noc(NS(=O)(=O)c2ccc(NC(=O)c3cc(-c4ccccc4Cl)nc4ccccc34)cc2)c1C [CBK296108] | 110.13 |
| Cc1n[nH]c(C)c1Sc1ccccc1/N=C/c1ccccc1O [CBK262068] | 112.931 |
| CC(C)(N)CC(=O)N1CCN(c2ncccn2)CC1 [CBK144532] | 105.702 |
| O=C(CSc1ccccc1)Nc1cnc(-c2ccc(F)cc2)c(-c2ccco2)n1 [CBK037196] | 121.046 |
| Fc1ccc(-c2ccc(N3CCN(c4ccncc4)CC3)nc2)cc1Cl [CBK036821] | 80.4253 |
| COCC(=O)N1CCC(NC(=O)N(CCc2ccccc2)Cc2ccccc2)CC1 [CBK174877] | 34.1942 |
| COc1ccc(OCCN2C(=O)CNC2=S)cc1 [CBK007177] | 72.9055 |
| Nc1nc(CC(=O)N2CCCCC2)cs1 [CBK049866] | 75.736 |
| CCn1c(=O)n(CC(=O)N2CCCCCC2)c2cccnc21 [CBK283942] | 52.4784 |
| Cc1csc(CN(C)C(=O)c2cc3sccc3[nH]2)n1 [CBK304334] | 62.7356 |
| Cc1cccc(N2C(=O)c3ccc(C(=O)OC(C(=O)c4ccccc4)c4ccccc4)cc3C2=O)c1 (stereo not shown) [CBK265098] | 105.31 |
| CSc1ccccc1C(=O)NCCCn1ccnc1 [CBK269749] | 80.3377 |
| Cc1ccc(SCc2ccc(C(=O)NCCN3CCOCC3)cc2)cc1 [CBK269314] | 102.885 |
| CN(CC(=O)Nc1cncc(OC2CCNCC2)n1)C(=O)c1ccccc1 [CBK028440T] | 94.7007 |
| CCCCN(C)c1nccnc1-c1cccnc1 [CBK037631] | 139.133 |
| CCC(C(=O)N1CCc2nc(C)[nH]c(=O)c2C1)c1ccccc1 (stereo not shown) [CBK284618] | 61.8189 |
| CC(C)CNc1cc(Cl)c(S(=O)(=O)NCC(C)C)cc1C(=O)O [CBK263405] | 107.925 |
| CC1CCCCN1C(=O)CCc1nc2sc3c(c2c(=O)[nH]1)CCCC3 (stereo not shown) [CBK306086] | 73.7428 |
| Cc1ccc(OCc2occc2C(=O)N2CCCC3(CCOC3)C2)cc1 (stereo not shown) [CBK307532] | 84.6391 |
| O=C(NC(c1ccccc1)c1ccsc1)C1CCN(CCc2ccccc2)CC1 (stereo not shown) [CBK148433] | 85.6823 |
| Cc1nc2ccc(NC(=S)N3c4ccccc4CC3C)cc2nc1C (stereo not shown) [CBK263169] | 70.3784 |
